Experimental data as given in PubChem BioAssay AID1159614 (National Center for Advancing Translational Sciences (NCATS), 2016).
About 65 (0.1%) of roughly 45,000 compounds were called active. Calls come from the whole dose curve; as a rule, active = well fitted activation curve with a large enough effect; inconclusive = small, poorly fitted or top-dose-only effect; inactive = no such curve, though single readings can be large or run the other way. The list shows a part of the results.

target: Galactocerebrosidase (Homo sapiens) (UniProt P54803); experiment: A Novel Cell-Based Assay to Identify Small Molecules for B -Galactocerebrosidase; settings: 145M-Twi-hGALC-G270D cells, HMU-beta-Gal fluorescence, 48 h; series mostly up to 57.5 µM; activation: at the top concentration; note: 0% is about no effect; nearly all actives have a fitted effect of over 65% in size
Sequence of UniProt P54803 (P54803 whole entry, looked up): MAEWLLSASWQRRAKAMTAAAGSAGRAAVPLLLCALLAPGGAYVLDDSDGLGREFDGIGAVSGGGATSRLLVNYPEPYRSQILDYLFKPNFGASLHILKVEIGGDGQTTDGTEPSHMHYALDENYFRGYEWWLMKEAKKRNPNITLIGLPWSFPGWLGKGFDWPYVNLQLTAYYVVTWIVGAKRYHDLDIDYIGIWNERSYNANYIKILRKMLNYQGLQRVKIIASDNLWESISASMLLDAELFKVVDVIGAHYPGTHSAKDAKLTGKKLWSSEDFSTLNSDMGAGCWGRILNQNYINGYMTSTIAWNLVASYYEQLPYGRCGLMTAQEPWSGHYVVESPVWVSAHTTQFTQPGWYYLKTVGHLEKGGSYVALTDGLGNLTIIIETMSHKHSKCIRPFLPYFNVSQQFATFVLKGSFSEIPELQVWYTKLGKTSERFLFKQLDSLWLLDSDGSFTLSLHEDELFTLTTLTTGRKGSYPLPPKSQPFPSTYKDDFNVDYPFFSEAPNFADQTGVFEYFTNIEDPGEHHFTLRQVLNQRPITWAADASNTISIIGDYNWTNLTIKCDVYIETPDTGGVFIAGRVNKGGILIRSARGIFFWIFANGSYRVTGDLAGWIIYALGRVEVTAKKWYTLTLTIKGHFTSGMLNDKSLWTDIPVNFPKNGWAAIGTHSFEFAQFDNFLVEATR
Method in brief: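 qHTS, 1536-well; 145M-Twi-hGALC-G270D cells (WT line also made) in DMEM/F12 + 10% FBS; compound incubation on live cells; HMU-β-gal 0.1 mM final, pH 5.2, NaTC; carbonate stop; fluorescence increase = enhanced residual activity.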

activation, inactive:
CCOc1ccc(NC(=O)Cn2cc(C(=O)c3ccc(C)cc3)c(=O)c3cc4c(cc32)OCO4)cc1 -16.1%
CCc1ccc(CN(Cc2ccco2)C(=O)c2cc(-c3ccc(C)c(F)c3)on2)cc1 -15.9%
COc1ccc(CCNC(=O)CCCCn2c(=O)c3ccccc3n(Cc3ccccc3)c2=O)cc1OC -14.9%
Clc1cccc(-n2ncc3c(NC4CCCCCC4)ncnc32)c1 -14.5%
Fc1ccccc1N1CCN(c2ncnc3c2nc2n3CCCC2)CC1 3.96%
CCOC(=O)c1ccc(NC(=O)CSc2ncc(S(=O)(=O)c3ccc(C)c(Cl)c3)c(=O)[nH]2)cc1 -2.67%
CN(C)c1ccc(NC(=O)Cn2cc(S(=O)(=O)Cc3ccccc3Cl)c3ccccc32)cc1 -15.5%
O=C(CNS(=O)(=O)c1cccs1)N1CCN(c2ccccc2F)CC1 -4.62%
CCCn1c(=O)c2sccc2n2c(CCCC(=O)NC3CCCCC3)nnc12 -11.5%
Cc1ccc(F)cc1S(=O)(=O)N1CCC(c2nc3ccccc3s2)CC1 -10.6%
Brc1cccc(-c2nnn3c2nc(N2CCCCC2)c2ccccc23)c1 -4.34%
CCn1c2c(c(=O)n3ncc(C(=O)Nc4ccc(Cl)cc4C)c13)CN(Cc1ccc(OC)cc1)CC2 5.78%
Cc1ccc2nc3c(c(Nc4ccc(C)c(C)c4)c2c1)CCC3 -31.7%
Cc1ccccc1Cn1c(C)c(CNCCCc2ccccc2)c(C(=O)O)c1C -1.7%
Cc1ccccc1Nc1c(-c2c[nH]c3ccccc23)nc2cccc(C)n12 -7.53%
COc1ccc(C2C=C(c3ccc(Cl)cc3)Nc3nc(NC(=O)CCC(=O)O)nn32)cc1 (centres undefined) -7.75%
CCC(C)NC(=O)Cn1c(=O)c2cccn2c2ccc(F)cc21 (centres undefined) -18.9%
CCCOc1cccc(C(=O)N2CCCCC2CCN2CCCCC2)c1 (centres undefined) 1%
O=C(Nc1ccc(F)cc1Cl)c1cnc(N2CCOCC2)c2ccccc12 3.63%
COc1ccc(-c2csc3nc(-c4ccc(C)cc4)oc(=O)c23)cc1OC -12.3%
O=c1c2sc3ccccc3c2n(Cc2ccc(Cl)cc2)c(=O)n1Cc1ccco1 -10.7%
Cc1ccc(NC(=O)CCc2nc3cccnc3n2-c2ccccc2)cc1Cl -20.4%
Cc1ccc(N(Cc2cccs2)C(=O)c2ccccc2[N+](=O)[O-])cc1 10%
COc1ccc(CCN(C)CCCC(C#N)(c2cc(OC)c(OC)c(OC)c2)C(C)C)cc1OC (centres undefined) -6.79%
COc1ccc(CNC(=O)CC2Oc3ccc(C)cc3NC2=O)cc1 (centres undefined) -16.9%
COc1cccc(CNC(=O)c2cc(=O)[nH]c3ccc(S(=O)(=O)N4CCCC4)cc23)c1 3.33%
CCOc1ccc(CCNC(=O)c2nn(C)c3c2CSc2ccc(C)cc2-3)cc1OCC -48%
COc1ccc(CCNc2nc(SCc3cccc(Cl)c3)nc3ccccc23)cc1OC -4.65%
Cc1cccc(Cn2c(CN3CCCC(C)C3)nc3c2c(=O)n(C)c(=O)n3C)c1 (centres undefined) -12.3%
Cc1ccc(S(=O)(=O)N2CCc3cc(C(=O)Nc4c(C)cccc4C(C)C)ccc32)cc1 -12.1%
COC(=O)c1cc2oc3ccccc3c2n1CC(=O)Nc1ccc(F)c(Cl)c1 5.69%
COc1cccc(CC(=O)Nc2ccc3nc(Nc4cccc(C(F)(F)F)c4)cc(C)c3c2)c1 -0.245%
Clc1ccc2nc(-c3cccs3)c(Nc3ccc4c(c3)OCCO4)n2c1 -11.6%
CCOC(=O)c1cc(OC(=O)c2cc(OC)cc(OC)c2)n(-c2ccccc2)n1 -2.78%
Cc1ccc(Cl)cc1NC(=O)Cn1c(SCC(=O)NCc2ccccc2)nc2ccccc21 -19.3%
CCOC(=O)c1c(NC(=O)CSc2cn(CCNC(=O)c3ccc(OCC)cc3)c3ccccc23)sc2c1CCC2 -6.15%
CCc1nonc1NC(=O)c1oc2ccc(Cl)cc2c1C -4.75%
COCCCNC(=O)c1ccc(-n2c(-c3ccccc3)cc3c2CCCCC3)cc1 -15.2%
CC1Cc2cc(S(=O)(=O)NCc3ccccc3)ccc2N1C(=O)C1CCC1 (centres undefined) -17.2%
CC1=C(C(=O)OC2CCCCCC2)C(c2ccc(Cl)cc2Cl)CC(=O)N1 (centres undefined) -4.04%
Cc1ccc(NC(=O)c2cnc3cc(C)ccn3c2=O)c(C)c1 -19.5%
CC1(C)S[C@@H]2[C@H](NC(=O)Cc3ccccc3)C(=O)N2[C@H]1C(=O)O (tested in a mixture with another compound) -25.3%
COc1c2occc2c(OC)c2c(=O)cc(C)oc12 -16.2%
CCCCSc1nc(-c2cccc(OC)c2)nc2c1Cc1c(CO)cnc(C)c1O2 -12.7%
CCc1nonc1NC(=O)c1oc2cc(C)c(C)cc2c1C -24.7%
Cc1ccc(-c2cc(NC(=O)c3cccc(C)c3)on2)cc1 -18.8%
Cc1c(Cl)cccc1NC(=O)c1oc2ccc(S(=O)(=O)N3CCC4(CC3)OCCO4)cc2c1C -8.74%
O=S(=O)(NCc1ccc(F)cc1)c1ccc2[nH]c3c(c2c1)CCCC3 -8.38%
CC(C)C[C@H](NC(=O)CNC(=O)[C@H](Cc1ccc(O)cc1)NC(=O)[C@H](CO)NC(=O)[C@H](Cc1c[nH]c2ccccc12)NC(=O)[C@H](Cc1cnc[nH]1)NC(=O)[C@@H]1CCC(=O)N1)C(=O)N[C@@H](CCCN=C(N)N)C(=O)N1CCC[C@H]1C(=O)NCC(N)=O (stereo in doubt) -10.2%
CCC(=O)Nc1ccc(CC)cc1-c1nc2ccccc2n(CC(=O)c2ccc(OC)cc2)c1=O -25.1%
CC1CCCCN1C(=O)CN1CCSc2ccccc21 (centres undefined) -0.723%
COc1cccc(-n2c(SCC(N)=O)nc3c(oc4ccccc43)c2=O)c1 -1.88%
CCc1ccccc1NC(=O)CCCn1c(=O)c2cccn2c2ccccc21 -4.98%
CCc1cccc(-n2c(=O)c3cccnc3n2CC(=O)Nc2ccc(OC)c(Cl)c2)c1 -19.2%
COc1ccc(NC(=O)C2Cc3ccccc3CN2S(=O)(=O)c2ccccc2)cc1OC (centres undefined) -6.79%
COc1ccc(C(=O)Oc2ccc(C(c3c(C)[nH][nH]c3=O)c3c(C)[nH][nH]c3=O)cc2)cc1 -11.1%
O=C1CN(C(=O)Cc2ccccc2)C(c2ccc(F)cc2)c2cc(Br)ccc2N1 (centres undefined) -27.8%
Cc1cc(S(=O)(=O)Nc2ccc3oc4c(c3c2)CCCC4)ccc1Cl -14.9%
NC(=O)NS(=O)(=O)c1ccc(Cl)cc1 -14.7%
CC(C)c1ccc(N2C(=O)N(Cc3cccc([N+](=O)[O-])c3)c3ccccc3S2(=O)=O)cc1 -13.1%
CCOc1ccc(NC(=O)[C@@H](c2ccccc2)N2Cc3ccccc3C2=O)cc1 -9.22%
COc1ccc(NS(=O)(=O)c2ccc3c(c2)[C@H]2C=CC[C@H]2[C@@H](c2ccc(C(=O)O)cc2)N3)cc1 -21.8%
Cc1noc(-c2ccc(-c3noc(-c4ccc([N+](=O)[O-])c(C)c4)n3)cc2)n1 -20.9%
Cc1ccc(S(=O)(=O)N2CCc3cc(C(=O)Nc4ccc(Cl)cc4C)ccc32)cc1 -11.4%
CCOc1ccc(CCNCc2c(C(=O)O)c(C)n(Cc3ccccc3F)c2C)cc1 -3.46%
CCCc1nn2c(=O)cc(COC(=O)c3ccc(NC(=O)COc4ccccc4F)cc3)nc2s1 -11.3%
O=S(=O)(NCCc1csc2nc(-c3ccccc3)nn12)c1ccc(Oc2ccccc2)cc1 -9.73%
COc1cc(C2C(C(=O)Nc3ccccc3C)=C(C)Nc3nc(SCc4cc(C)ccc4C)nn32)ccc1O (centres undefined) -18.5%
CCN(CC)c1ccc(NC(=O)CCc2c(C)nc3ncnn3c2C)c(C)c1 21.3%
Cc1cccn2c(=O)c(C(=O)N3CCN(c4ccc(Cl)cc4)CC3)cnc12 -3.27%
COc1ccc(Cl)cc1NC(=O)Cn1nnc2sc(-c3ccccc3)cc2c1=O -10.7%
CCOC(=O)c1cc2c(=O)n3ccccc3nc2n(Cc2ccco2)c1=NC(=O)c1cccc(Br)c1 1.32%
Cc1ccc(Cl)cc1N1CCN(C(=O)c2noc3c2CCCC3)CC1 2.97%
Cc1ccc(-n2nnnc2CNC(=O)C2CC(=O)N(c3ccccc3)C2)cc1C (centres undefined) -10.3%
CCc1cccc(C)c1NC(=O)c1cc2ccccc2o1 -34.8%
Cn1cc(S(=O)(=O)c2ccccc2)c(=O)c2cc(F)c(N3CCCC3)cc21 -16.7%
O=C(NCc1ccccc1)c1ccc(CSc2nc3cccnc3n2Cc2ccccc2)cc1 -5.87%
COc1ccc(CCNC(=O)c2cc3c(=O)n4ccccc4nc3n2C)cc1 -6.28%
CC(=O)OCC(CCn1cnc2cnc(N)nc21)COC(C)=O -8.6%
C[C@H](CN1CCCC1)C(=O)c1ccc(C(F)(F)F)cc1 -11.8%
COc1cccc(N2CCN(C(=O)c3ccc4c(Cl)c5c(nc4c3)CCCC5)CC2)c1 -36.1%
CCc1ccc(NC(=O)CSC2=Nc3ccccc3C3=NC(CC(=O)NCc4cccs4)C(=O)N23)cc1 (centres undefined) -9.94%
Cc1cc2c(cc3c(SCc4cccc(Cl)c4)nnc(C)n32)o1 -12.7%
CCC(Cn1nnc2ccccc2c1=O)NC(=O)Nc1cc(OC)cc(OC)c1 (centres undefined) -12.6%
CCC(=O)N1CCc2cc(Br)cc(S(=O)(=O)N3CCC(C(=O)Nc4cccc(C)c4)CC3)c21 -22.7%
COc1ccc(NC(=O)Cn2cc(S(=O)(=O)c3ccccc3)c(=O)c3cc(C)ccc32)cc1Cl 3.95%
Cc1cc(N2CCN(C)CC2)nc2ccc(NC(=O)c3ccccc3F)cc12 -24.7%
CC(=O)Nc1ccc(S(=O)(=O)N2CCN(c3ccc(C)c(C)c3)CC2)cc1 -8.13%
CNC(=O)c1cccc(-n2c(C)nc3cccnc32)c1C -11.2%
O=c1c2cccnc2n(Cc2ccc(Cl)cc2)c(=O)n1Cc1ccc(F)cc1 -15.7%
CCCSc1nnc(NC(=O)Cc2coc3cc(C)ccc23)s1 -10.8%
CC(=O)c1ccc(NC(=O)CSc2nc3c(=O)n(C)c(=O)n(C)c3n2C)cc1 -7.19%
Cc1cc(OCC(=O)Nc2ccc(C(=O)OC3CCCCC3)cc2)ccc1Cl -8.9%
O=C(CSc1nnc2[nH]c(=O)cc(-c3ccccc3)n12)Nc1ccccc1C(F)(F)F -7.01%
